# Reference: PubChem BioAssay AID652104 (National Center for Advancing Translational Sciences (NCATS), 2013)
# Several values for one entry are separate records, joined by “and”; a condition that tells them apart may be missing. Identical values can stand only once. About 7,200 (1.8%) of roughly 410,000 compounds were called active. Inconclusive means that the source gave no clear call. Such entries were picked first, then a sample of the others. The call rests on the fitted dose curve; in most records, active means well fitted activation curve with a large enough effect; inconclusive means small, poorly fitted or top-dose-only effect, or another doubt; inactive means no such curve, though single readings can be large or run the other way. A potency beside an inconclusive call is a rough fit, not a confirmed value.
# Experiment: qHTS of TDP-43 Inhibitors; further: nearly all actives have a fitted effect of over 50% in size
# Settings: TDP-43 expressing yeast growth rescue, BacTiter-Glo, 24 h; series mostly up to 46.1 µM
# Outline: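 In this qHTS, compounds that restore growth of yeast expressing TDP-43 appear as activators. Cells (OD600=0.02, galactose medium, raffinose-pregrown) are incubated with compound 24 hr at 30 deg C and growth is quantified by BacTiter-Glo.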
# Potency means the concentration at half of the fitted maximal effect; tags describe the fitted curve by direction and shape.
row,Compound,Potency
1,CC(C)(C)NC(=O)C1CC2CCCCC2CN1 (stereo not given),inactive
2,O=C(O)CCCOc1ccc(Cl)cc1Cl,"inconclusive: 3.16 µM [activator, partial curve]"
3,CN1C(=O)C(=Cc2coc3ccccc3c2=O)C(=O)N(C)C1=O,"inconclusive: 31.6 µM [activator, single point]"
4,Cc1nc2cc(-c3ccccc3)nn2c(C)c1CCC(=O)N1CCC2(CC1)OCCO2,"inconclusive: 12.6 µM [activator, single point]"
5,O=C(NCCc1ccc(F)cc1)C(=O)NCC(c1cccs1)S(=O)(=O)c1ccc(Cl)cc1 (stereo not given),"inconclusive: 39.8 µM [activator, partial curve, poor fit]"
6,Cc1ccc(-c2ccc3c(c2)O[C@H](CN(C)C(=O)CC2CC2)[C@H](C)CN([C@@H](C)CO)S3(=O)=O)cc1,"inconclusive: 35.5 µM [activator, single point]"
7,C#CCNc1ccncc1S(=O)(=O)NC(=O)NC(C)C,inactive
8,Cc1nc(-c2nc(-c3c(C(=O)NNC(=O)c4ccc(Cl)cc4)noc3C)cs2)cs1,"inconclusive: 14.1 µM [activator, single point]"
9,O=c1c2ccccc2nc(-c2ccccc2)n1-c1nccs1,"inconclusive: 12.6 µM [activator, partial curve]"
10,Cc1nc2ccc(NC(=O)C3COc4ccccc4O3)cc2s1 (stereo not given),active: 15.8 µM
11,COC(=O)[C@H]1[C@H]2C[C@@H]3c4[nH]c5cc(OC)ccc5c4CCN3C[C@H]2C[C@@H](OC(=O)/C=C/c2cc(OC)c(OC)c(OC)c2)[C@@H]1OC,"inconclusive: 3.16 µM [activator, partial curve, poor fit]"
12,COC(=O)C1=C(c2ccc(F)cc2OCc2ccccc2)C[C@@H]2CC[C@H]1N2C(=O)NCC1CC1,"inconclusive: 35.5 µM [activator, single point]"
13,CCc1ccc(NC(=O)c2ccc(F)c(S(=O)(=O)N3CCC4(CC3)OCCO4)c2)cc1,"inconclusive: 11.2 µM [activator, partial curve]"
14,C[C@]12CCC(=O)C=C1CC[C@@H]1[C@@H]2CC[C@@]2(C)[C@H]1CC[C@]2(C)O,"inconclusive: 35.5 µM [activator, partial curve]"
15,COc1ccc(C(C)=O)cc1CC1(C)C(=O)Nc2ccc(-c3ccccc3OC)cc21 (stereo not given),"inconclusive: 31.6 µM [activator, single point]"
16,COC(=O)C1=C(c2ccc(Cl)c(C(F)(F)F)c2)C[C@@H]2CC[C@H]1N2C(=O)NC1CCCCC1,"inconclusive: 22.4 µM [activator, single point]"
17,CN1C(=O)N(C)C(=O)C2(Cc3c(ccc4ccccc34)N(C)C2)C1=O,"inconclusive: 35.5 µM [activator, single point]"
18,CCOc1ccccc1N1C(=O)CC(=O)NC1=O,inactive
19,CC12CC(=O)C3C(CCC4CC=CCC43C)C1CCC2=O (stereo not given),active: 10 µM
20,COc1ccccc1N1CCN(C(=O)c2cc3c(-c4ccccc4F)nn(C)c3s2)CC1,active: 15.8 µM

row,Compound,Potency
1,O=C(COC(=O)Cc1ccccc1)NC(=O)NC1CCCCC1,"inconclusive: 11.2 µM [activator, partial curve]"
2,Cc1ccc(N2C(=O)NC(=O)/C(=C\C=C\c3ccco3)C2=O)cc1,inactive
3,CCNc1nc(Cl)nc(NC(C)C)n1,"inconclusive: 22.4 µM [activator, partial curve, poor fit]"
4,CCC(C(=O)Nc1ccccc1F)N1C(=O)CN=C(c2ccccc2)c2ccccc21 (stereo not given),"inconclusive: 0.316 µM [activator, full curve, poor fit]"
5,O=C(c1ccco1)c1cn(Cc2ccc(Cl)cc2)c2ccccc12,active: 12.6 µM
6,COc1cccc(OP(=O)(Nc2ccccc2)Oc2cccc(OC)c2)c1,"inconclusive: 17.8 µM [activator, partial curve]"
7,CC(=O)[C@H]1[C@H](C#N)C[C@H]2[C@@H]3CC=C4C[C@@H](O)CC[C@]4(C)[C@H]3CC[C@@]21C,"inconclusive: 10 µM [activator, partial curve]"
8,CCOC(=O)c1ccc(NC(=O)c2cccn(Cc3ccccc3F)c2=O)cc1,"inconclusive: 0.316 µM [activator, full curve, poor fit]"
9,CCOC(=O)c1ccc(Nc2nc(C)cc(C)n2)cc1,"inconclusive: 0.631 µM [activator, full curve]"
10,COC(=O)C1=Nc2ccccc2/C1=C\c1c(O)n(-c2ccc(Br)cc2)c(=O)[nH]c1=O,inactive
11,CCCCCc1nc2ccccc2c(=O)n1-c1ccccc1[N+](=O)[O-],"inconclusive: 11.2 µM [activator, partial curve]"
12,Cc1cccc(CN2C(=O)CN=C(c3ccccc3)c3cc(Cl)ccc32)c1,"inconclusive: 35.5 µM [activator, single point]"
13,CCOP(=O)(OCC)/C(C#N)=C/c1ccc(Br)cc1,"inconclusive: 28.2 µM [activator, single point]"
14,CCCCN1C(=O)NC(=O)C2(Cc3c(nc4ccccn4c3=O)N3CCc4ccccc4C32)C1=O (stereo not given),"inconclusive: 11.2 µM [activator, partial curve]"
15,C#CC1(O)C=CC2C3CCC4=CC(=O)CCC4C3CCC21CC (stereo not given),active: 14.1 µM
16,CCOC(=O)C1CCN(Cc2ccc(Cl)nc2)CC1,inactive
17,C[C@]12CC[C@H]3[C@@H](CCC4=CC(=O)CC[C@@]43C)[C@@H]1CC[C@@H]2O,"inconclusive: 20 µM [activator, single point] and inconclusive: 11.2 µM [activator, single point]"
18,Cc1nc2cc(OC(=O)N(C)Cc3cccc(-c4ccncc4)c3)ccc2s1,active: 10 µM
19,CC(=O)C1CCC2C3CCC4CC(O)CCC4(C)C3CCC12C (stereo not given),"inconclusive: 11.2 µM [activator, partial curve]"
20,O=C(NCCc1ccccc1)[C@@H]1CC=C[C@@H]2CCN(Cc3ccc(Cl)c(Cl)c3)C(=O)[C@@H]21,"inconclusive: 35.5 µM [activator, single point]"
